The text below walks through data of the supplement of paper PMC11876631.

Where a chain is given by its changes, count along the chain named. Numbers in names are those of the source. ± gives the standard deviation of the averaged measurements. Laboratory Escherichia coli strains with one amino-acid change in an essential protein, pooled on minimal glucose agar with carbenicillin or gentamicin at twice the control MIC (plus kanamycin and chloramphenicol for the plasmids), 48 h. Fold change of barcode share against drug-free plates; higher = less susceptible. Active = above 20 in both replicates (the paper's putatively resistant). '<' = one read or none on drug, '>' = one read or none on a drug-free plate. Shares are relative, so most strains fall below 1 when a few take over. Listed are strains with at least 15 reads on both drug-free plates, and hits; most hits rest on fewer reference reads. Replicate rank correlation about 0.5. Edits are read from barcodes. A value given as a limit tells only on which side of the number the result lay.

The labels stand for the following.
B1: cysG I441A (protein)
chain: MDHLPIFCQLRDRDCLIVGGGDVAERKARLLLDAGARLTVNALAFIPQFTAWADAGMLTLVEGPFDESLLDTCWLAIAATDDDALNQRVSEAAEARRIFCNVVDAPKAASFIMPSIIDRSPLMVAVSSGGTSPVLARLLREKLESLLPLHLGQVAKYAGQLRGRVKQQFATMGERRRFWEKLFVNDRLAQSLANNDQKAITETTEQLINEPLDHRGEVVLVGAGPGDAGLLTLKGLQQIQQADVVVYDRLVSDDIMNLVRRDADRVFVGKRAGYHCVPQEEINQILLREAQKGKRVVRLKGGDPFIFGRGGEELETLCNAGIPFSVVPGITAASGCSAYSGIPLTHRDYAQSVRLITGHLKTGGELDWENLAAEKQTLVFYMGLNQAATIQQKLIEHGMPGEMPVAIVENGTAVTQRVIDGTLTQLGELAQQMNSPSLIIAGRVVGLRDKLNWFSNH
B2: cysE L120Q (protein)
chain: MSCEELEIVWNNIKAEARTLADCEPMLASFYHATLLKHENLGSALSYMLANKLSSPIMPAIAIREVVEEAYAADPEMIASAACDIQAVRTRDPAVDKYSTPLLYLKGFHALQAYRIGHWQWNQGRRALAIFLQNQVSVTFQVDIHPAAKIGRGIMLDHATGIVVGETAVIENDVSILQSVTLGGTGKSGGDRHPKIREGVMIGAGAKILGNIEVGRGAKIGAGSVVLQPVPPHTTAAGVPARIVGKPDSDKPSMDMDQHFNGINHTFEYGDGI
B3: cysE L120D (protein)
chain: B2 chain with Q120D
B4: cysE V88A (protein)
chain: B2 chain with V88A, Q120L
B5: cysE V88Q (protein)
chain: B2 chain with V88Q, Q120L
B6: cysE V88W (protein)
chain: B2 chain with V88W, Q120L
B7: cysE I116A (protein)
chain: B2 chain with I116A, Q120L
B8: cysE V88D (protein)
chain: B2 chain with V88D, Q120L

In the first data set the target is Escherichia coli (laboratory strain). Nature of the data set: barcode share on antibiotic plates over drug-free plates; higher = less susceptible. The conditions noted are these: antibiotic: carbenicillin; 2× MIC (3.1 µg/mL). The procedure:
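A pool of E. coli strains, each edited to carry one amino-acid change in an essential protein, was grown for 48 h on minimal glucose agar with or without antibiotic; strain barcodes were sequenced; mean of two replicates.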
With B1, the “fold change of barcode share” value amounted to 0.68 ± 0.22.
B2: the “fold change of barcode share” value amounted to 0.13 ± 0.085.
On the same count and under the same terms, as for B3, the figure is 0.308 ± 0.26; as for B4, 0.487 ± 0.41; as for B5, 0.424 ± 0.085.
As for B6, the “fold change of barcode share” value was determined as 0.216 ± 0.17.
The same measure, in the same setting: next, B7: 0.297 ± 0.045; B8: 0.245 ± 0.033.

Still in this data set, the particulars now being: antibiotic: gentamicin; 2× MIC (MIC 0.45 µg/mL).
With B1, the “fold change of barcode share” value is below 0.00449.
Still for that read-out and setting: next, B3: 0.0261 ± 0.027.
On the same count and under the same terms, next, B4: below 0.00601; B5: 0.0112 ± 0.0044.
As to B6, the “fold change of barcode share” value amounted to 0.0194 ± 0.01.
Same read-out and setting: next, B8: below 0.0105.
